Results taken from PubChem BioAssay (NCI).
Values joined by “and” are separate entries in the source; they are usually repeats but may differ in a detail not shown here. Equal entries are not always repeated.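 A five-concentration, 48-hour dose response in 96-well plates underlies each endpoint, interpolated linearly between surrounding concentrations. Here, GI50 denotes the concentration required for 50% inhibition of growth. At the TGI there is no net growth.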

tested on: NCI-H322M lung; assay: NCI anticancer screen, dose series, 48 h

Compound	TGI	GI50
CCOC(=O)c1cc(=C2\CCN(CC(C)CC)C2=S)/c(=C(/O)CC)[nH]1 (stereo not drawn)	61.3 µM	
CCCCCCCCCCCCCCCC(=O)NCC(COP(=O)([O-])OCC[N+](C)(C)C)OCC (stereo not drawn)	36.6 µM	
COC1O[C@H]2CCN(C(=O)OCc3ccccc3)[C@H]2[C@H]1OCc1ccccc1 (stereo partly drawn)	> 100 µM	
CC(C)(C)OC(=O)n1cc(CNC(=S)Nc2ccccc2)c2ccccc21	44.2 µM	16.3 µM
CCOC(=O)c1cc2c([N+](=O)[O-])c(NC(C)=O)ccc2s1	> 100 µM	
COc1cc2c(c3c1C=CCO3)C(=O)c1ccccc1C2=O	> 100 µM	
Clc1ccccc1C(c1ccccc1)(c1ccccc1)n1ccnc1	13.8 µM and 29.9 µM	3.12 µM
CN(C)CC(=O)N1CCC(c2ccc(NC(=O)c3ncc(C#N)[nH]3)c(C3=CCCCC3)c2)CC1	24.2 µM	11.7 µM
CC(C)(C)c1cc(O)c(O)c(C(C)(C)C)c1	20.8 µM	8.09 µM
O=C1CC(=O)N(c2ccccc2)N1/C(=C/c1ccccc1)c1ccccc1	66.2 µM	
Cc1cc([C@@H](C)Nc2ccccc2C(=O)O)c2nc(N3CCOCC3)cc(=O)n2c1	> 10 µM	> 10 µM
CCOC(=O)c1c(NC(=O)c2ccccc2)sc2c1CCCC2	> 100 µM	
Cc1cccc(N2C(=O)C3ON(C(C(N)=O)c4ccccc4)C(c4c5ccccc5c(Cl)c5ccccc45)C3C2=O)c1C (stereo not drawn)	35.8 µM	
COc1ccc(-c2nn(-c3cccc(Cl)c3)cc2C2CC(c3ccccc3)=NN2C(C)=O)cc1 (stereo not drawn)	> 100 µM	9.26 µM
N#CC1(c2nc3ccccc3o2)C(=O)C(=O)N(C2C3CC4CC(C3)CC2C4)C(=O)C1=O (stereo not drawn)	> 100 µM	
NC(N)=N/N=C(/c1ccccc1)c1ccc(F)cc1	22 µM	0.569 µM
O=C1CC(C(O)CO)CC(=O)N1 (stereo not drawn)	> 100 µM	
c1ccc([P+](CCNCCNCC[P+](c2ccccc2)(c2ccccc2)c2ccccc2)(c2ccccc2)c2ccccc2)cc1	> 100 µM	
O=[N+]([O-])[C@@H]1C2C=CC(C2)[C@H]1Cl (stereo partly drawn)	> 100 µM	

Compound	TGI	GI50
Cc1cc2c(c(C(=O)NCCC(=O)O)c1)Oc1c(cc(C)cc1C(=O)NCCC(=O)O)S2	> 100 µM	
C=CCN(CC=C)Cn1c(=S)sc2ccccc21	> 100 µM	
COc1ccc(C(=O)Nc2ncc(Cc3ccc(Cl)cc3)s2)cc1	> 100 µM	0.259 µM
CC(=O)OCC1OC(O[C@@H]2C[C@H]3C(C)(C)[C@H](OC(C)=O)CC[C@]3(C)[C@H]3CCC4=C([C@@H](C)C[C@@H](O)[C@H](O)C(C)(C)O)CC[C@@]4(C)[C@@]32C)C(O)C(O)C1O (stereo partly drawn)	31.3 µM	17.5 µM
Cc1ccc(-c2cc(N)n(-c3nc4c([nH]3)c(=O)n(C)c(=O)n4C)n2)cc1	22.4 µM	
COC(=O)c1cc(CC(C)C)c2c(c1)[nH]c1ccccc12	> 100 µM	
COc1ccc(-c2c(C#N)c(S)n(C3OC(COC(C)=O)C(OC(C)=O)C(OC(C)=O)C3OC(C)=O)c(=O)c2C#N)cc1 (stereo not drawn)	> 100 µM	
Oc1ccccc1/C=N/Nc1ccc2ccccc2n1	> 100 µM	4.78 µM
O=C(c1cccs1)c1c(C(F)(F)F)n([O-])c2ccccc2[n+]1=O	16.2 µM	9.06 µM
O=C1CCCN(c2ccccc2)N1	> 100 µM	
Cc1ccc(S(=O)(=O)N2CCN3C(=O)c4ccccc4C32c2ccc(F)cc2)cc1 (stereo not drawn)	> 100 µM	
COc1cc(/C=C\[N+](=O)[O-])ccc1O	19.2 µM	5.67 µM
N#Cc1c(-c2cccs2)c2c(=S)[nH]c(=S)[nH]c2[nH]c1=S	92.9 µM	25.2 µM
C=CC(=O)c1ccc2c(c1)OCCOCCOCCOCCOCCO2	> 100 µM	
C=CC(=O)Nc1cccc(-c2nc(SC)nc(Nc3ccccc3OC)c2C#N)c1	8.32 µM	2.53 µM
O=C(O)c1ccc(NC(c2ccccc2)c2ccc3cccnc3c2O)cc1 (stereo not drawn)	> 100 µM	
Nc1n[nH]c2ccc([C@@H]3Nc4ccc5[nH]ncc5c4[C@H]4[C@H]5CCC(C5)[C@H]43)cc12	> 100 µM	1.17 µM
O=C(CSc1nc2ccc([N+](=O)[O-])cc2[nH]1)Nc1ccc(F)c(Cl)c1	11 µM	2.66 µM
